# Measured values: PubChem BioAssay (NCATS)
# The other results are listed elsewhere or left out. The main result of the screen is listed elsewhere. These columns were measured beside it and carry no call. The list favours compounds with an active or inconclusive main result. Potencies come from curve fits of mixed quality, noted in brackets.
# Assay: qHTS Assay for Lipid Storage Modulators (AID 1519)
# Conditions: Drosophila S3 cells, BODIPY lipid droplet/cell ratio, laser cytometry, cells loaded with oleic acid
# How it was run: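 Cells seeded at 5,000 per well were treated with compounds over a concentration series and loaded with oleic acid (400 uM, as added). Lipid droplet fluorescence (488 nm excitation, 500-530 nm channel) was read by laser-scanning cytometry and normalized to 20 uM Triacsin C.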
# [1] = measured here: cell count channel max response
# [2] = measured here: cell number channel AC50
# [3] = measured here: lipid (BODIPY) channel AC50
# [4] = measured here: lipid channel max response
# Tags give direction and shape of the fitted curve.
SMILES,max response [1],AC50 [2],AC50 [3],max response [4]
COc1ccccc1CNc1ccnc(-c2cccc(C#N)c2)n1,29.4%,"0.282 µM [rising, full curve]","0.282 µM [rising, full curve]",41%
COCCn1c(=O)c(CCc2ccccc2)nc2cnc(Oc3cccc(Cl)c3)nc21,20.1%,"3.55 µM [rising, partial curve]","2.24 µM [rising, partial curve]",28.5%
Cc1nc2cncnc2n(Cc2ccccc2Cl)c1=O,24.4%,"2.24 µM [rising, full curve, poor fit]","1.58 µM [rising, full curve, poor fit]",31.2%
COc1ccc(CNc2nc(-c3cccc(C#N)c3)nc3ccccc23)c(OC)c1,32.1%,"0.0398 µM [rising, full curve, poor fit]","0.0224 µM [rising, full curve, poor fit]",35.5%
CN(Cc1ccco1)c1ncnc2ccc(-c3cccc(NS(C)(=O)=O)c3)cc12,5.76%,"1 µM [rising, full curve]","1 µM [rising, full curve]",1.8%
COc1ccccc1CNc1ncncc1-c1cccc(NS(C)(=O)=O)c1,40.1%,"8.91 µM [rising, full curve]","8.91 µM [rising, full curve]",51.8%
COc1cccc(Cn2c(=O)c(C)nc3cnc(N4CCOCC4)nc32)c1,30%,"0.316 µM [rising, full curve, poor fit]","0.2 µM [rising, full curve]",43.1%
CCCCOC(=O)c1cc2c(cn1)[nH]c1ccccc12,38.4%,"0.562 µM [rising, full curve, poor fit]","0.631 µM [rising, full curve]",46.2%
CCCCOc1cc(C[C@@H]2CNC(=O)N2)ccc1OC,78.6%,"15.8 µM [rising, partial curve, poor fit]","17.8 µM [rising, partial curve, poor fit]",99.9%
COc1ccc(-c2nc3cnc(N(C)C)nc3n(C)c2=O)cc1,21.3%,"3.16 µM [rising, full curve, poor fit]","2.82 µM [rising, full curve, poor fit]",28.6%
C[C@@]12C(=O)OC(=O)[C@@]1(C)[C@@H]1CC[C@@H]2O1,66.1%,"7.08 µM [rising, full curve, poor fit]","8.91 µM [rising, partial curve, poor fit]",92.3%
COc1ccccc1CNc1cc(-c2cccnc2)ncn1,23%,"0.0141 µM [rising, full curve, poor fit]","0.01 µM [rising, full curve, poor fit]",25.7%
CC(=O)Oc1c2c(c3c(c1CC=C(C)C)O[C@@]14C(=CC5CC1C(C)(C)OC4(C/C=C(\C)C(=O)O)C5=O)C3=O)OC(C)(CCC=C(C)C)C=C2 (stereo partly specified),-52.3%,"31.6 µM [falling, single point]","11.2 µM [falling, partial curve]",-80.1%
CN1CCN(c2ncc3nc(-c4cn(C)c5ccccc45)c(=O)n(CCC#N)c3n2)CC1,16.4%,"1.58 µM [rising, partial curve, poor fit]","1.12 µM [rising, full curve, poor fit]",18.2%
COC(=O)C1C(O)CC[C@H]2CN3CCc4c([nH]c5ccccc45)C3C[C@H]12 (stereo partly specified),16.2%,"3.55 µM [rising, partial curve, poor fit]","1.58 µM [rising, full curve, poor fit]",30.1%
O=C(O)[C@H]1[C@H]2C[C@H]3c4[nH]c5ccccc5c4CCN3C[C@@H]2CC[C@@H]1O,60.3%,"12.6 µM [rising, partial curve, poor fit]","14.1 µM [rising, partial curve, poor fit]",78%
COc1ccccc1CNc1ccnc(-c2ccc(C(=O)N(C)C)cc2)n1,25.2%,"0.562 µM [rising, full curve]","0.562 µM [rising, full curve]",30.6%
N#CCCn1c(=O)c(-c2ccccc2)nc2cnc(Nc3ccccc3)nc21,81.4%,"22.4 µM [rising, partial curve]","39.8 µM [falling, single point]",-64.1%
Cc1cnc(CNc2cc(-c3c(C)noc3C)ncn2)cn1,40.9%,"7.94 µM [rising, partial curve]","10 µM [rising, partial curve, poor fit]",52.4%
c1ccc(-c2csc(-c3nc4ccccc4[nH]3)n2)cc1,15.4%,"0.251 µM [rising, full curve]","0.178 µM [rising, full curve]",15.6%

SMILES,max response [1],AC50 [2],AC50 [3],max response [4]
COc1cccc(Cn2c(=O)c(CCc3ccccc3)nc3cncnc32)c1,34.5%,"1.78 µM [rising, partial curve]","1.26 µM [rising, partial curve]",43.8%
COc1ccc(-c2cc(=O)c3ccc(O)cc3o2)cc1,65.5%,"31.6 µM [rising, partial curve, poor fit]","31.6 µM [rising, partial curve, poor fit]",88.3%
CNc1nc(-c2ccoc2)nc2ccccc12,34.8%,"2.51 µM [rising, full curve, poor fit]","2.24 µM [rising, full curve, poor fit]",44%
COc1ncc2nc(-c3cn(C)c4ccccc34)c(=O)n(CCC#N)c2n1,25.7%,"2 µM [rising, partial curve]","0.631 µM [rising, full curve, poor fit]",31.1%
OC[C@H]1NC[C@@H](O)[C@@H](O)[C@H]1O,61.1%,"17.8 µM [rising, full curve, poor fit]","22.4 µM [rising, partial curve, poor fit]",67.7%
COc1ncc2nc(C)c(=O)n(CCC#N)c2n1,41.6%,"1 µM [rising, full curve, poor fit]","0.891 µM [rising, full curve]",54%
COc1cc(/C=C/C(=O)N2CCCCC2=O)cc(OC)c1OC,67.6%,"14.1 µM [rising, full curve]","14.1 µM [rising, partial curve, poor fit]",-27.4%
N#Cc1cccc(-c2cc(NCc3cccnc3)ncn2)c1,32.1%,"0.708 µM [rising, full curve, poor fit]","0.631 µM [rising, full curve]",38%
Cc1cnc(CNc2cc(-c3ccccc3Cl)ncn2)cn1,23.5%,"5.01 µM [rising, full curve, poor fit]","4.47 µM [rising, full curve, poor fit]",30.5%
COc1cccc(-c2nc(N(C)C)c3ccccc3n2)c1,43.1%,"1.78 µM [rising, full curve]","2 µM [rising, full curve]",53.1%
c1cncc(-c2nccc(NCc3cccs3)n2)c1,16.5%,"0.708 µM [rising, full curve]","0.631 µM [rising, full curve, poor fit]",19.5%
CCNc1ncc2nc(-c3cc(F)cc(F)c3)c(=O)n(-c3ccc(OC)cc3)c2n1,33.8%,"0.0355 µM [rising, full curve, poor fit]","0.0178 µM [rising, full curve]",2.45%
Clc1ccccc1-c1nc(NCc2cccs2)c2ccccc2n1,36.6%,"2.82 µM [rising, full curve]","2.51 µM [rising, full curve]",45.6%
O=S(=O)(c1ccccc1)N1CCC2(CCCN(Cc3ccccc3)C2)CC1,16.4%,"1.26 µM [rising, full curve]","0.891 µM [rising, full curve, poor fit]",10.6%
COc1ccc(-n2c(=O)c(-c3cn(C)c4ccccc34)nc3cncnc32)cc1,28.4%,"0.562 µM [rising, full curve, poor fit]","0.562 µM [rising, partial curve, poor fit]",37.2%
O=C(c1ccc2c(c1)OCO2)N1CCCCC1,85.4%,"14.1 µM [rising, partial curve, poor fit]","15.8 µM [rising, partial curve, poor fit]",109%
C=CCn1c(=O)c2c(nc(-c3ccc(S(=O)(=O)O)cc3)n2C)n(C)c1=O,-32.8%,"0.00251 µM [falling, full curve, poor fit]","0.00224 µM [falling, full curve, poor fit]",-31.3%
COc1cccc(-c2cncnc2NCCc2cnc[nH]2)c1,13%,"0.891 µM [rising, full curve, poor fit]","0.891 µM [rising, full curve, poor fit]",19.2%
O=c1c(-c2ccc(F)cc2)nc2cncnc2n1Cc1ccccc1,31.2%,"0.355 µM [rising, full curve]","0.355 µM [rising, full curve]",37.4%
